The campaign covered roughly 310,000 compounds. About 2,200 (0.71%) showed an effect of 50% or more. The effect is printed as a negative number. The list shows a part of the results.
Target: human ether-à-go-go-related gene (hERG) potassium channel (human, UniProt Q12809)
Experiment: primary screen, population patch clamp on CHO cells stably expressing hERG

Chain of human ether-à-go-go-related gene (hERG) potassium channel (Q12809 whole entry, looked up): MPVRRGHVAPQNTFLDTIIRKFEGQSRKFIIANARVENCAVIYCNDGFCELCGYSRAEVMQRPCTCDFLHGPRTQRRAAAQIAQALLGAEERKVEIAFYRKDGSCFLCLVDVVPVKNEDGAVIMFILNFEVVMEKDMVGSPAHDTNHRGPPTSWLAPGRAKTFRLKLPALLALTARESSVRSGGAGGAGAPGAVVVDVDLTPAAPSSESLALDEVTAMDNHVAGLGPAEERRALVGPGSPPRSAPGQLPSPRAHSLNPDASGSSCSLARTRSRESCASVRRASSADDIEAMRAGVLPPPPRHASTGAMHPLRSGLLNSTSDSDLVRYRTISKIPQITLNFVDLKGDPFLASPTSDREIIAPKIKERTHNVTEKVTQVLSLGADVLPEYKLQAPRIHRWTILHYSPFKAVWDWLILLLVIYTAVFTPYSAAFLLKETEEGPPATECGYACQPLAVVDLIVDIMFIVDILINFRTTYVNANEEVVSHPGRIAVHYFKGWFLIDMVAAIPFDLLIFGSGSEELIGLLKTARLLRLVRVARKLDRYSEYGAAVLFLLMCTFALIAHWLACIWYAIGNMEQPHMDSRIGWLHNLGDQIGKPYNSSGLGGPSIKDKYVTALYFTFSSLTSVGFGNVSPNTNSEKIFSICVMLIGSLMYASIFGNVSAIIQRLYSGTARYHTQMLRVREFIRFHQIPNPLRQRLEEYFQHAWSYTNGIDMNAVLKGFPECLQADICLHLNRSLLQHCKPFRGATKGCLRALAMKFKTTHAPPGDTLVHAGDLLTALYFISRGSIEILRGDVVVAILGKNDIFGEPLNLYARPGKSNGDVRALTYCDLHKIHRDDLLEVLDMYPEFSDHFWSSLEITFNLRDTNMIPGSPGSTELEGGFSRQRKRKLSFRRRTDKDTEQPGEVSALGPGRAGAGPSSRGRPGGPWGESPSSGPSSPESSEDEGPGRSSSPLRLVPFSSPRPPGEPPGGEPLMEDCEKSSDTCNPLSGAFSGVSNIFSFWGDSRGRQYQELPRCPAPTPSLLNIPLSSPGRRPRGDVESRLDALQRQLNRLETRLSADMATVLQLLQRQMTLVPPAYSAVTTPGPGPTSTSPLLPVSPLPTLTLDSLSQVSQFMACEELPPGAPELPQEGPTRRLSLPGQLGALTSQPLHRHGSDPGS

Row | SMILES | hERG current change (%, negative = inhibition) at 1uM [%]
1 | CCCCn1c(O)c(C(C)=Nc2cccc(C(=O)O)c2)c(=O)[nH]c1=O | 1.18
2 | CN1CCNC(=O)C1CC(=O)NCCC1=CCCCC1 (stereo not drawn) | 9.41
3 | CCOC(=O)C1CCN(CCC(=O)Nc2cccc(C)c2)CC1.Cl | -32.6
4 | Cc1ccc(S(=O)(=O)CCC(=O)OCc2cc(C)ccc2C)cc1 | 8.15
5 | O=C(COC(=O)Cc1cccc(C(F)(F)F)c1)Nc1ccc2c(c1)OCCO2 | 11.3
6 | CNC(=O)c1c(NC(=O)c2ccco2)sc(C)c1C | 11.5
7 | CCN(CC)S(=O)(=O)c1ccc(/C=C/C(=O)NC2CCCCC2)cc1 | 11.4
8 | CN(c1ccccc1C(=O)NCc1ccccn1)S(C)(=O)=O | 4.85
9 | CC1(C)O[C@@H]1COc1c2ccoc2cc2oc(=O)ccc12 | 5.25
10 | COc1ccc2cc(OCC(=O)NNC(=O)Nc3ccc(C(C)=O)cc3)ccc2c1 | 10.7
11 | COc1ccc(/C=C/C(=O)NCC(=O)N/N=C/c2ccc(OC)cc2)cc1 | 7.83
12 | CCN(CC(=O)NCCCn1ccnc1)S(=O)(=O)c1ccc(C)cc1 | 8.39
13 | Cc1cc(Cn2nc(-c3ccccc3C)cc2C(=O)O)on1 | 11.9
14 | C/C(=N\NC(=O)c1ccoc1C)c1cccc2ccccc12 | 17.2
15 | CC(C)CCN(C(=S)Nc1cccc(F)c1)C(C)c1cccs1 (stereo not drawn) | 6.21
16 | Cc1ccc(-c2nn3c(C)nnc3c3ccccc23)cc1S(=O)(=O)NCc1ccccc1 | -15
17 | CC(C)C(=O)N1CCN(c2ccccc2NC(=O)c2ccc([N+](=O)[O-])o2)CC1 | -23.5
18 | CCc1ccc(OCC(=O)Nc2ccc(S(=O)(=O)Nc3ccccn3)cc2)cc1 | 11.9
19 | CC(=O)NC(Cc1ccc(C)cc1)C(=O)NC1CCN(C(=O)c2ccc([N+](=O)[O-])cc2)CC1 (stereo not drawn) | 6.17
20 | Cc1ccc(NCc2nnc(SCC#N)o2)c(C)c1 | -1.84
21 | C/C(=N\NC(=O)c1ccn(C)n1)c1ccc(NC(=O)C2CCCC2)cc1 | 5.84
22 | CCNC(=O)Nc1cc2nc(C)n(Cc3ccc(Br)cc3)c2nc1C | 7.69

Row | SMILES | hERG current change (%, negative = inhibition) at 1uM [%]
23 | CC(C)C(NS(=O)(=O)c1ccccc1)C(=O)N1CCCC1 (stereo not drawn) | 15.4
24 | Cc1cccc(NC2=C(C#N)C(=O)NC3(CCCC3)S2)c1 | 11.4
25 | O=C(O)c1ccc(Nc2nc3c(s2)CCCC3)cc1 | -44.3
26 | Cn1c(=O)c(C(=O)COC(=O)c2cc(-c3ccccc3)nc3ccccc23)c(N)n(Cc2ccccc2)c1=O | 12
27 | COC(=O)C(NC(=O)CCc1nnc2ccc(N3CCCCC3)nn12)C(C)C (stereo not drawn) | 9.65
28 | CCOCCCNC(=O)/C(C#N)=C/c1ccc(C(=O)OC)cc1 | 2.69
29 | Cc1ccc2nc(NC(=O)CNS(=O)(=O)c3ccc(Br)s3)sc2c1 | 5.76
30 | CCc1ccc(-c2cc(C)no2)cc1S(=O)(=O)NCCc1ccc(S(N)(=O)=O)cc1 | 14.5
31 | CC(C(=O)NC1CC1)c1ncc(C(F)(F)F)cc1Cl (stereo not drawn) | 6.91
32 | CCCCN1C(=O)C(=O)N(CC(=O)Nc2sc(C)c(CC)c2C(=O)OCC)C1=O | 15
33 | CCN(CC)Cc1c(O)ccc2c(-c3ccccc3)cc(=O)oc12 | 2.12
34 | CCCn1c(SCC(=O)Nc2nc(C)c(C(=O)OC)s2)nnc1C(C)C | -5.47
35 | NC(=O)NOCc1ccccc1F | 15.9
36 | Cc1cc(NCCCO)n2c(nc3ccccc32)c1C#N | 9.7
37 | COc1cccc(OCc2cc(C(=O)N3CCN(C(=O)c4ccco4)CC3)no2)c1 | -7.14
38 | COc1ccc2c(c1)CCc1c(C(=O)NCc3ccc(F)cc3)noc1-2 | 14.2
39 | CC(=O)N1CCCc2ccc(NS(=O)(=O)c3ccccc3)cc21 | 16.7
40 | CN(C)c1ccc(N=Cc2ccco2)cc1 | 2.62
41 | CCN(CC)C(=O)Cn1cc(S(=O)(=O)CC(=O)Nc2ccc(F)cc2F)c2ccccc21 | 8.5
42 | O=C(Nc1nccs1)c1ccc(NC(=O)c2ccco2)cc1 | 7.13
43 | CC1=CC=CC2=N/C(=N\S(=O)(=O)c3ccc(F)cc3F)c3ccccc3CN12 | 0.709
44 | CCOC(=O)c1cn(CC)c2cc(N3CCCCC3)c(F)cc2c1=O | 3.75

Row | SMILES | hERG current change (%, negative = inhibition) at 1uM [%]
45 | O=[N+]([O-])c1cccc(NNS(=O)(=O)c2ccccc2F)c1 | -2.27
46 | COc1ccccc1NS(=O)(=O)c1ccc2c(c1)N(C(C)=O)CC(C)S2 (stereo not drawn) | 4.01
47 | O=C(O)CC/C(=C\c1ccccc1[N+](=O)[O-])c1nc2ccccc2s1 | 8.42
48 | CC1CCCCC1NC(=O)C1CC(=O)N(Cc2ccccc2)C1 (stereo not drawn) | 10.2
49 | O=C(NC(=S)Nn1cnc2c(cnn2-c2ccccc2)c1=O)c1ccc(Cl)cc1 | 11.4
50 | COc1ccc(N(C)S(=O)(=O)c2cccc(C(=O)OC(C)C(=O)NC3CCCCC3C)c2)cc1 (stereo not drawn) | 12.7
51 | CCCCCCCCSc1n[nH]c(N)n1 | -1.57
52 | CCOC(=O)c1[nH]c(C)c(C(=O)N2CCc3c([nH]c4ccccc34)C2c2ccccn2)c1C (stereo not drawn) | 8.78
53 | Cc1c(NC(=O)CSc2n[nH]c(=O)n2-c2ccccc2)c(=O)n(-c2ccccc2)n1C | 12.8
54 | COc1cccc(CC(=O)Nc2cc(S(=O)(=O)N3CCOCC3)ccc2N2CCN(C)CC2)c1 | 0.424
55 | O=C(COC(=O)/C=C/c1ccc(F)cc1)NCc1ccco1 | 4.62
56 | CSc1nc(Cl)c(Cc2ccc(OC(C)C)cc2)c(N2CCOCC2)n1 | 12.4
57 | Cc1nn(-c2ccccc2)c(C)c1C(=O)OCC(=O)N1CC(=O)Nc2ccccc21 | 11.9
58 | N/C(=N\OC(=O)Nc1ccccc1)c1ncc([N+](=O)[O-])s1 | 2.58
59 | CCn1ccc(C(=O)NC2=C(C#N)CCC2)n1 | 9.82
60 | Cc1oc(-c2ccc(Cl)cc2)nc1CS(=O)CC(=O)NCCN1CCCCCC1 (stereo not drawn) | 9.89
61 | CCn1c(Oc2ccccc2C)nc2c1c(=O)n(C)c(=O)n2C | 13.2
62 | CCN1CCN(C(=O)c2ccc(N3CC4CC(C3)c3cccc(=O)n3C4)c(NC(=O)c3cc(OC)cc(OC)c3)c2)CC1 (stereo not drawn) | 10.2
63 | O=C(Nc1ccccc1C(F)(F)F)N1CCN(C(c2ccccc2)c2ccccc2)CC1 | 18.7
64 | O=C(c1ccccc1F)N1CCN(c2ncccn2)CC1 | 6.3
65 | C/C(=N\Nc1nccnc1Cl)c1ccc(Cl)c(Cl)c1 | 10.6
66 | C=C1CCC[C@]2(C)C[C@H]3OC(=O)C(CN4CC(C)OC(C)C4)[C@H]3C[C@@H]12 (stereo partly drawn) | -3.22

Row | SMILES | hERG current change (%, negative = inhibition) at 1uM [%]
67 | O=c1nc2s/c(=C\c3ccco3)c(=O)n2nc1Cc1ccc(F)cc1 | -1.12
68 | CCOC(=O)[C@@H]1[C@H]2COc3cc(OC)ccc3[C@@H]2N2C(=O)N(c3ccc(Cl)cc3)C(=O)[C@@]12C | 2.07
69 | CCOc1ccc(C(=O)Nc2cc(C)ccn2)cc1 | 7.02
70 | O=C(NCCc1ccc(S(=O)(=O)N2CCCC2)cc1)c1cccs1 | 10.2
71 | Cc1cccc(CN2CCN(CC(=O)NCc3ccc(F)cc3)C2=O)c1 | 7.12
72 | O=C(CNCCc1ccc(Cl)cc1Cl)NCc1ccco1 | 0.503
73 | C[n+]1ccccc1/C=C/c1c(F)cccc1F.[I-] | 16.1
74 | O=C(N/N=C/c1cc(Br)ccc1O)c1cccc(N2CCCC2=O)c1 | 5.86
75 | O=C(CNS(=O)(=O)c1ccccc1)Nc1ccc2c(c1)OCO2 | 10.3
76 | CCC1CN(C(=O)N2CCC(C(=O)NCCc3ccc(OC)cc3OC)CC2)c2ccccc2O1 (stereo not drawn) | -31.5
77 | COc1ccc(NC(=O)CC2C(=O)N(c3cccc(OC)c3)C(=O)N2CCC(C)C)cc1 (stereo not drawn) | 7.68
78 | O=C(c1cc2ccccc2o1)N1CCC(N2CCC(C(=O)N3CCCC3)CC2)CC1 | -16.8
79 | CCOc1ccccc1N(C(=O)Nc1ccc(Cl)cc1)C1=NCCS1 | 9.01
80 | Cc1cc(C(=O)Nc2c(C)n(C)n(-c3ccccc3)c2=O)cs1 | -1.47
81 | CC(C)c1ccc(NC(=O)CCNS(=O)(=O)c2cccc3nsnc23)cc1 | 0.28
82 | O=C(O)CCC(=O)N1CCN(c2cccc(Cl)c2)CC1 | 8.91
83 | O=Cc1c[nH]c2ccc(S(=O)(=O)N3CCOCC3)cc12 | 16.2
84 | CCOC(=O)C(Oc1ccc2c(-c3ccc(OC)cc3)cc(=O)oc2c1C)c1ccccc1 (stereo not drawn) | 3.56
85 | O=C(NCCO)c1ccc2nc(Cc3cccc(Cl)c3)oc2c1 | 9.42
86 | C#CCn1c(=NC(=O)c2ccc(S(=O)(=O)N3CCCc4ccccc43)cc2)sc2cc(S(N)(=O)=O)ccc21 | 2.36
87 | O=C(Cc1ccccc1)Nc1ccnn1C1CCN(Cc2ccc(CO)o2)CC1 | 11.4

From PMC4336329 (PLoS ONE, 2015)
